Source: PMC12136788
Some of the results follow.

T1: UNK ZnF1-3 (human, UniProt Q9C0B0 31-174)
T1 sequence: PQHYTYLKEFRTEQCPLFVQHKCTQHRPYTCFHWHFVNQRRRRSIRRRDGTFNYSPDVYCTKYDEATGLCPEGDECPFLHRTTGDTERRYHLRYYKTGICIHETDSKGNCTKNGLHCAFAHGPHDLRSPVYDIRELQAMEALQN

B1: chr7:140404665:140404666:+_ENSG00000090266_ENST00000247866|hu_hu|hu_hu_hu_mus_False|88_108 (ssRNA)
RNA: GGGAGUUCUACAGUCCGACGAUCUGCGUACAGAGUGCCAGAGAGUUUACACCUUCAGUCCUCGUCAUCAGGAGGGAUUCCCAGUUCUUCAUCUGUCCACUGUGAAGGAUCUGGAUAUGAAAAGUGACCCAGCACAGCAUCCGACAACAGAGGAUUGAGCAUCA
B2: chr11:72025555:72025556:-_ENSMUSG00000020801_ENSMUST00000021157|mus_mus|FALSE|FALSE (ssRNA)
RNA: GGGAGUUCUACAGUCCGACGAUCCGCACACUGCGCAUUCACCAGCUCCUUGCGAAAGUGCUCAUACUGGAGCAGCUCUAACAUAUGUAAGCACUGAGGGUACUUUAGAUAUUUGGCAUAUUCUGGUUCUUUCCAGUAAAGCAACAACAGAGGAUUGAGCAUCA
B3: 109357056_109363205_1080_CDS_ENSG00000153201_ENST00000283195|human|control|control (ssRNA)
RNA: GGGAGUUCUACAGUCCGACGAUCAGCUUCACCUUUUAUUAAUUUAAUCUUUGGUCUUGGAACCUGAAAUGCUAUGAGAUAGCACAAUGCAGCCAGCUCAGAAAGAGCUCGCCAUUGAACAUUACUACUAUGCUGACCCAUCUUCAACAGAGGAUUGAGCAUCA
B4: 108357121_108366956_3200_CDS_ENSG00000108018_ENST00000263054|human|control|control (ssRNA)
RNA: GGGAGUUCUACAGUCCGACGAUCAGCAGCAUGGACAAGGACUCGGACUCCUGGCUUCAGCUCGAAGUGUACUGAGUUUUGGUUGAGCGUGUGGAUCAGCAAUUCUGAUAUCUGCUCCAGGUCAUCAGUUGACCUUUUGUUUUCCAACAGAGGAUUGAGCAUCA
B5: chr2:232320318:232320319:-_ENSG00000115053_ENST00000322723|hu_hu|hu_hu_hu_mus_True|68_108 (ssRNA)
RNA: GGGAGUUCUACAGUCCGACGAUCACUGUUGAAGUCUACAAAACCAAACCCUUUGGAAGAACCAGUUUCCCGGUCAGUGACUAUUCUUGCACGAACAGAGCCCUCAAAUGAUUCUUUUAAGGUCUCUUCAGUGGUAUCCUCAGACAACAGAGGAUUGAGCAUCA
B6: 76978581_76983199_1410_CDS_ENSMUSG00000036435_ENSMUST00000113493|mouse|control|control (ssRNA)
RNA: GGGAGUUCUACAGUCCGACGAUCCAUCUUCAUCUUUGCAACUUCAAAGAAAUCUUUGAUUUCUCUUUCAUAUAGUCGGGAUAAAUAAUCCAUGUAAUUCUUUGUUAGUCCCUCGUAUUUUCCAUAGUCUGUACUCUUUAGCCACAACAGAGGAUUGAGCAUCA
B7: chr14:66974463:66974464:+_ENSMUSG00000022044_ENSMUST00000074523|mus_hu|mus_mus_mus_hu_False|38_88 (ssRNA)
RNA: GGGAGUUCUACAGUCCGACGAUCUUGUAGGACGACUUAUUCAGGGGAUCAGACAAGAAGCAGGAGCAGAACAAGGACACCAGCGGGAGCUCCUUCAUCUUCUCCUUGUAGGCAGCAAGGGUCAUGUUUCUGGGAUCUGGUGGCCAACAGAGGAUUGAGCAUCA
B8: chr1:39494447:39494448:+_ENSG00000168653_ENST00000372967|hu_mus|hu_hu_hu_mus_False|1_98 (ssRNA)
RNA: GGGAGUUCUACAGUCCGACGAUCGCACCGAGCGGCGAUCUUGUAGGGCUGUUCUGCGCUUAGGAACAUAAAGUGCCGGUCCAGGCUGAUGCCCAGCUUUUUCUGUAUGUCAAGGAAAGGCAUGGCUCUGCAGUGCCCCCUUGACAACAGAGGAUUGAGCAUCA
B9: chr1:135503150:135503151:-_ENSMUSG00000090553_ENSMUST00000166915|mus_mus|motif|central (ssRNA)
RNA: GGGAGUUCUACAGUCCGACGAUCUUCUGCAUCAUCUAAUACGAGGUUCAUGUACUCAUCAAAGCCAAUAAUACAACCUUCGGUCCGCAUAUUCACUUGUUCAUACAGCCACACCUGAAUUCGAGAUCUAUUUUGCAAGUAUCUCAACAGAGGAUUGAGCAUCA
B10: chr2:48026839:48026840:+_ENSG00000116062_ENST00000540021|hu_hu|hu_hu_hu_mus_False|48_68 (ssRNA)
RNA: GGGAGUUCUACAGUCCGACGAUCAUAGUGAGCCACUAGCGUCCUAAAUCUGGAACAGUGGCGGUCAUCUGAAAACUGGCCGAUGAAAAACUUUCCCAGUGAAGUGUCCACAAAGCAAACACCAUACACACGAGUGUGACCAGACAACAGAGGAUUGAGCAUCA
B11: 107984585_107984705_1084_3pUTR_ENSMUSG00000029461_ENSMUST00000049053|mouse|control|control (ssRNA)
RNA: GGGAGUUCUACAGUCCGACGAUCUAGAAAAAGCAGCUUUUACAAAAACCAAAAAUAAAAAUCAAAACCAUUAAAGAUGCAUAAAGUGACCCUUGCACUUCCGUUGUCUCUUCUUGCAAUAGAGGUGGUGCUGCUAGGAGACUGCAACAGAGGAUUGAGCAUCA
B12: chr14:102551731:102551732:-_ENSG00000080824_ENST00000216281|hu_mus|FALSE|FALSE (ssRNA)
RNA: GGGAGUUCUACAGUCCGACGAUCCACGAUCUCCUUUAUUCUCCUUUCCUCCAAAUACUCUGUUUGGUCUUCUUUCAGAUGCAAGAUAACCUUUGUUCCACGACCCAUUGGUUCACCUGUGUCAGUCCUCACUGUGAAGGAUCCCAACAGAGGAUUGAGCAUCA
B13: 213125139_213139073_470_CDS_ENSG00000143494_ENST00000366968|human|control|control (ssRNA)
RNA: GGGAGUUCUACAGUCCGACGAUCGUGAUUAUAUUGUAGGGUCUUCAUGUAAUUCUGGAUCGCCUGGAGCCAGUCUGGGAUCGUCAUCGACAGCCUGUAGUUUGGGACCUGGGGUAUUGAAGGCUUUGCCAAGAAGGCGGCGUUCAACAGAGGAUUGAGCAUCA
B14: chr2:230653580:230653581:-_ENSG00000153827_ENST00000389045|hu_hu|motif|central (ssRNA)
RNA: GGGAGUUCUACAGUCCGACGAUCAGUAAGCCAUGUUGGGAUGUUUCCUGUCAUGAUUACUAAAGGAUCUUGAAGUUGCCGGUUUGCUUUUGCUGUUAACUUACUGUUAAUAAAUUCACUAGUUGGAAUAAUUUCCUUGCACAUCAACAGAGGAUUGAGCAUCA
B15: chr5:132203191:132203192:+_ENSG00000164405_ENST00000378667|hu_mus|FALSE|FALSE (ssRNA)
RNA: GGGAGUUCUACAGUCCGACGAUCAUUCUUCCUUUUCGACUGCUCAAACUCCUGGUUGCCCCAUGUGUAGAUCAGGUAGACCACUACAAACGGCGGCGCCACGCGCAGGAUGCGCUCGCGAGUGCGGCGCAGCACGUUGGGGAUCAACAGAGGAUUGAGCAUCA
B16: 106035800_106035920_799_3pUTR_ENSMUSG00000054720_ENSMUST00000067924|mouse|control|control (ssRNA)
RNA: GGGAGUUCUACAGUCCGACGAUCCUCCGGACACUUCGGAGAGAGCCCGUGUGGUCCACGGGGAGUCAAAGCACUUCCCCAGGAUGGAGAUGAAAUGUUCUAUUUUGGAACUGGAUCCGGGGAAUUUGAACCAGAAGUUGCUACCAACAGAGGAUUGAGCAUCA
B17: chr7:149068622:149068623:-_ENSMUSG00000025139_ENSMUST00000001950|mus_hu|mus_mus_mus_hu_False|18_58 (ssRNA)
RNA: GGGAGUUCUACAGUCCGACGAUCGUGAGGCCUCUGAGUGUGGCUUGUGGUCUGUCCUGGGUUAGAGUUGUUAAUAUCACUAAGUGGACCAUCUAGAACGUUCCAGUCCCGCCUGACCAUCCACCCUCCAAUGGAGAAGAAAUCCAACAGAGGAUUGAGCAUCA
B18: chr1:60041781:60041782:+_ENSMUSG00000041040_ENSMUST00000036540|mus_hu|mus_mus_mus_hu_False|48_68 (ssRNA)
RNA: GGGAGUUCUACAGUCCGACGAUCAAGUUUACAAUAGUAAAGUAAAUGCAGUAGUGGCAAAUUUUCUUUACUUUAGUUUCACAAAAGAAAACCUCAGUAACCCAGUCCUAGUCUUGGACAUAGUGAAAGCUAUAAAUUCUGACUCAACAGAGGAUUGAGCAUCA
B19: chr7:135839355:135839356:+_ENSMUSG00000042105_ENSMUST00000151237|mus_mus|FALSE|FALSE (ssRNA)
RNA: GGGAGUUCUACAGUCCGACGAUCAUGACGGGCAAGCCCAUACUUAAGAAUUUGAGAGAGAGAGAAAAAAAAAUGUAUAUACGGGAGAGAGUGGGGUCAAAGGAAAAAUACAGUUUUACCAUUGUUAAUUCUCAACUUCAGAGACAACAGAGGAUUGAGCAUCA
B20: 33466408_33530590_1544_3pUTR_ENSMUSG00000028274_ENSMUST00000108153|mouse|control|control (ssRNA)
RNA: GGGAGUUCUACAGUCCGACGAUCUUCUGUGGAAGCAACCCUUCUCCUCCCAUUCUUGUUAUCUUAAGUCGAAAAUCCACAGAGUUUAGACUGGGAGGUUUCCAUUUCAAAAUGUCAUCACAUCGACCAGGCUUGUAUUUUCCACAACAGAGGAUUGAGCAUCA
B21: chr12:28026325:28026326:-_ENSMUSG00000063632_ENSMUST00000079063|mus_hu|FALSE|FALSE (ssRNA)
RNA: GGGAGUUCUACAGUCCGACGAUCCUGCUGCUCGCUGGCGCUGUGCGCGCUUUGAGAGAAAUUCAAGCUCAGGUCGAACAUCAGGUCGUCGGCGUCCUCGCCGCUGCUGCCGCUGCUGCUGCCGCUGCUGCUGGACGAGGAGGUCAACAGAGGAUUGAGCAUCA
B22: chr4:82150701:82150702:-_ENSMUSG00000008575_ENSMUST00000064770|mus_mus|FALSE|FALSE (ssRNA)
RNA: GGGAGUUCUACAGUCCGACGAUCUAAAACGCACUUUCCCGGAGAUGCCCAAGAAAAUCUUCCAGAAGCAAGGAUUUCAUCUAUUCAUUUUACAGUCAUCUGAGCCCAGCGAUGCGAUCAAUCAGGACGGGGCACUGCGCCGGUCAACAGAGGAUUGAGCAUCA

Target: T1, UNK ZnF1-3
Experiment: nsRBNS (natural sequence RNA bind-n-seq); RBNS binding buffer (assumed for nsRBNS): 25 mM Tris pH 7.5, 150 mM KCl, 3 mM MgCl2, 0.01% Triton X-100, 500 ug/ml BSA, 20 U/ml SUPERase-In, 4 C; UNK is unkempt and MSI1 is Musashi-1; names of the RNAs are library labels; protein concentration not given here; high values mean tight binding

| Binder | binding signal [enrichment R] |
| --- | --- |
| B1 | 1.08 |
| B2 | 0.747 |
| B3 | 1.9 |
| B4 | 0.847 |
| B5 | 0.504 |
| B6 | 0.343 |
| B7 | 1.69 |
| B8 | 0.692 |
| B9 | 1.03 |
| B10 | 1.12 |
| B11 | 1.58 |
| B12 | 0.523 |
| B13 | 0.943 |
| B14 | 0.632 |
| B15 | 0.735 |
| B16 | 0.74 |
| B17 | 0.94 |
| B18 | 0.652 |
| B19 | 2.76 |
| B20 | 0.827 |
| B21 | 0.753 |
| B22 | 1.56 |
